# Measurements published in the RNAGym collection of RNA variant scans (doi:10.7554/elife.90254).
# Read counts are not given, so values of variants with three or more changes are uncertain.
# B1: LINE1-full (parent)
# chain: UACGUAGGUGGUUUUCCCCUGAUAGUGCUAAGGGGGCCUGGAAGUUUGGACUGGGCAGAGCUCAACACAGCGUGGCAAAGUGGCUGUGGCUAGACUGCCUCUCUGGAUUCCUCGUCACUCAGCAGGGCAUCUCUGAGAGAAAUGCC
# Variants of: B1
# Experiment: self-cleavage, relative activity (ratio to wild type); higher = more cleavage; in vitro, sequencing; the parent is a self-cleaving ribozyme
row,Variant,self-cleavage
1,UACGUAGGUGGUUUCCCCCUGAUAGUGCUAAGGGGGCCUGGAUGUUUGGACUGGGCAGAGCUCAACACAGCGUGGCAAAGUGGCUGUGGCUAGUCUGCCUCUCUGGAUUCCUCGUCACUCAUCAGGGCAUCUCUGAGAGAGAUGCC [U15C A43U A94U G122U A141G],0.13
2,UACGUAGGUGGUUUUCCCCUGAAAGUGCUAAGGGGGCCUGGAAGUUUGGACUGGGCAGAGCUCAACACAGCGUGGCAAAGUGGCUGUGGCUAGACUGCCUCUCUGGAUUCCUCGUCACUCUGCAGGGCACCUCUGAGAGGAAUGCC [U23A A121U U130C A140G],2.3
3,UACGUAGGUGGUUUUCCCCCGAUAGUGCUAAGGGGGCCCGGAAGUUUGGACUGGGCGGAGCUCAACACAGCGUGGCAAAGUGGCUGUGGCUAGACCGCCUCUCUGGAUUCCUCGUCACUCAGCAGGGCAUCUCUGAGAGAAGUGCC [U20C U39C A57G U96C A142G],0
4,UACGUAGGUGGCAUUCCCCUGAUAGUGCUAAGGGGGCCUGGAAGUUUGGACUGGGCAGAGCUCAACACAGCGAGGCUAAGUGGCCGUGGCUAGACUGCCUCUCUGGAUUCCUCGUCACUCAGUAGGGCAUCUCUGAGAGAAAUGCC [U12C U13A U73A A77U U85C C123U],0.11
5,UACGUAGGUGGUUUUCCCCCGAUAGUGCUAAGGGGGCCUGGGAGUUUGGACUGGGCAGAGCUCAACACAGCGUGGCAAAGUGGCAGUGGCUAGACUGCCUCUCUGGUUUCCUCGUCACUCAGCAGGGCAUCUCUGAGAGAAAUGCC [U20C A42G U85A A107U],0.06
6,UACGUAGGUGGUUCUCCCCUGAUAGUGCUAAGGGGGCCUGAAAGUUUGGACUGGGCAGAGCUCAACACAGCGUGGCAAAGUGGCUGUGGCUAGACUGCCUCCCUGGAUUCCUCGUCACUCAGCAGGGCAUCUCUGAGAGAAGUGCC [U14C G41A U102C A142G],1.01
7,CACGUAGGUGGUUUUCCCCUGUUAGUGCUAAAGGGGCCUGGAAGUUUGGACUGGGCAGAGCUCAACACAGCGUGGCAAAGUGGCCGUGGCUAGACUGCCUCUCUGGAUUCCUCGUCACUCAGCAGGGCAUCUCUGAGAGAAAUGCC [U1C A22U G32A U85C],0.04
8,UACGUAGGUGGUUUUCCCCUGAUAGCGCUAAGGGGGCCUGGAGGUUUGGACUGGGCAGAGCUCAACACAGCGUGGCAGAGUGGCUGUGGCUAGACUGCCUCUCUGGAUUCCUCGUCACUCAGCAGGGCAUCUCUGAGAGAAAUGCC [U26C A43G A78G],0.36
9,UACGUAGGUGGUCUUCCCCUGAUAGUGCUAAGGGGGCCUGGAAGUUUGGACUGGGCAGAGCUCAACACAGCGUGGCAAAGUGGCUGUGGCUAGACUGCCUCUCCGGAUUCCUCGUCACUCAGCAGGGCAUCUCUGUGAGAAAUGCC [U13C U104C A136U],1.75
10,UACGUAGGUGGUUUUCCCCUGAUAGUGCUAAGGGGGCCUGGAAGUUUGGACUGGGCAGAGCUCAACACAGCGUGGUAAAGUGGCUGUGGCUAGACUGCCUCUCUGGAUUCCUCGUCACUCAGCAGGACAUCUCAGAGAGAAAUGCC [C76U G127A U134A],1.49
11,UACGUAGGUGGUCUUCCCCUGAUAGUGCUGAGGGGGCCUGGAAGUUUGGACUGGGCAGGGCUCAACACAGCGUGGCAGAGUGGCUGUGGCUAGACUGCCUCUCCGGAUUCCUCGUCACUCAGCAGGGCAUCUCUGAGAGAAAUGCC [U13C A30G A59G A78G U104C],0
12,UACGUAGGUGGCUUUCCCCCGAUAGUGCUAAGGGGGCCUGGAAGUUAGGACUGGGCAGAGCUCGACACAGCGUGGCAAAGUGACAGUGGCUAGACUGCCUCUCUGGAUUCCUCGUCACUCAGCAGGGCAUCUCUGAGAGAAAUGCC [U12C U20C U47A A64G G83A U85A],0.27
13,UACGUAGGUGGCUUUCCCCUGAUAGUGCUAAGGGGGCCUGGAAGUCUGGACUGGGCAGAGCUCAACACAGUGUGGCAAAGUGGCUGUGGCUAGACUGCCUCUCUGGACUCCUCGUCACUCAGCAGGGCAUCUCUGAGAGAAAUGCC [U12C U46C C71U U108C],1.1
14,UACGUAGGUGGUUUUCCCCUGGUAGUGCUAAGGGGGCCUGGAAGUUUGGACUGGGCUGAGCUCAACACAGCGUGGCAAAGUGGCUGUGGCUAGACUGCCUCUCUGGAUUCCUCGUCACUCAGCAGGGCAUCUCUGAGAGAAAUGCU [A22G A57U C146U],0.11
15,UACGUAGGUGGCUUUCCCCUAGUAGUGCUAAGGGGGCCUGGAAGUUUGGACUGGGCAGAGCUCAACACAGCGUGGCAGAGUGGCUGUGGCUAGACUGCCUCUCUGGAUUCCUCGUCACUCAGCAGGGCAUCUCUGAGGGAAAUGCC [U12C G21A A22G A78G A138G],1.27
16,UACGUAGGUGGUUUUCCCCUGAUAGUGCUAAGGGGGCCUGGAAGUCUGGACUGGGCAGAGCUCGACACAGCGUGGCAAAGUGGCUGAGGCUAGACUGCCUCUCUGGAUUCCUCGUCGCUCAGCAGGGCAUCUCUAAGAGGAAUGCC [U46C A64G U87A A117G G135A A140G],0.18
17,UACGUAGGUGGUUUUCCCCUGAUAGUGCUAUGGGGGCCUGGAAGUUUGGACUGGGCAGAGCUCUACACAGCGUGGCAAAGUGGCUGUGGCUAGACUGCCUCUCUGGAUUCCUCGUCGCUCAGCAGGGCAUCCCUGAGAGAGAUGCC [A31U A64U A117G U132C A141G],1.21
18,UACGUGGGUGGUUUUCCCCUGAUAGUGCUAAGGGGGCCUGGAAGUUUGGACUGGGCAGAGCUCAACACAGCGUGGCAGGGUGGCUGUGGCUAGACUGCCUCUCUGGAUUCCUCGUCACUCAGCGGGGCAUCUCUGAGAGAAAUGCC [A6G A78G A79G A124G],1.15
19,UACGUAGGUGGUUUUCCCCUGAUAGUGCUAAGGGGGCCUGGAAGUUUGGACUGGGCAGAGCCCAACACAGCGUGGUAAAGUGGCUGUGGCUAGACUGCCUCUCCGGAUUCCUCGUCACUCAGCAGGGCAUCUCUGAGAGAAGUGCC [U62C C76U U104C A142G],0.02
20,UACGUAGGUGGUUUUCCCCUGAUAGUGCUAAGGGGGCCUGGAAGUUUGGACUGGGCAGAGCUCAACACAGCGUGGCAAAGUGGCUGAGGCUAGACUGCCUCUCUGGAUUCCCCGUCACUCAGCGGGGCAUCUCUGAGAGAAAUGCC [U87A U112C A124G],0
